# Results taken from PubChem BioAssay AID759 (NMMLSC, 2007).
# Out of some 190,000 compounds screened, about 270 (0.14%) were called active. The shares of active, inactive and inconclusive entries below differ from those in the screen.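 The calls were made as follows: active = GTP binding activity at least 20% away from the 100% baseline, either lowered as inhibitor or raised as activator; inconclusive = flagged as likely green fluorescent, judged across all proteins in the well; inactive = the rest.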
# Target: GTPase HRas (Homo sapiens) (UniProt P01112)
# UniProt P01112, sequence (P01112 whole entry, looked up): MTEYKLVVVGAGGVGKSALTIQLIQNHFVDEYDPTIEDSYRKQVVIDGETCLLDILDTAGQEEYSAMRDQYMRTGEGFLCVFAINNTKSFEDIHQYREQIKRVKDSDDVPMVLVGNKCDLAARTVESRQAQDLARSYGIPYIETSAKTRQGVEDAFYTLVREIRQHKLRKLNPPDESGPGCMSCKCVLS
# Assay: HRas wt fluorescent GTP binding changes, either direction – biochemical, wildtype, bead-based flow cytometry, multiplex, primary screen (AID 759);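 also: 0% = unlabeled GTP competition control and 100% = no-compound control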
# Conditions: GST-Ras wt beads, Bodipy-FL-GTP binding, at 10 µM, actives lie on both sides
row,SMILES,GTP binding activity
1,O=C(NCCOCCNC(=O)OCc1ccccc1)OCc1ccccc1,inactive: 94%
2,Cc1ccnc(N2C(=O)OC(C)(C)C2(C)O)c1 (stereo not drawn),inconclusive: 106%
3,Fc1ccccc1COc1ccc2ccccc2c1CNc1nn[nH]n1,inactive: 96%
4,N#Cc1c(Nc2ccccc2)c(/C=N/N=C/c2ccccc2)c[nH]c1=O,active: 76%
5,COc1cc2[nH]c(=S)nc(Nc3ccc(NC(C)=O)cc3)c2cc1OC,inconclusive: 43%
6,COC(=O)c1ccc2nc(Nc3nc4c(F)cc(F)cc4s3)sc2c1,inactive: 85%
7,O=C1NC(=S)N/C1=C/c1cc([N+](=O)[O-])ccc1O,inconclusive: 85%
8,Nc1ccc(-c2cn3cccnc3n2)cc1,active: 78%
9,O=c1oc2ccc3ccccc3c2cc1-c1nnc(-c2ccccc2)o1,inconclusive: 94%
10,O=C(NCc1ccco1)C1CC(=O)N(c2ccc(O)cc2)C1 (stereo not drawn),inconclusive: 97%
11,O=C(Nc1cccc2nsnc12)c1ccc(-c2ccc(Br)cc2)o1,inconclusive: 94%
12,CCN1/C(=C\C=C2\C(=O)N(C)C(=S)N2C)Sc2ccccc21,inactive: 83%
13,COCCCNc1nc(=S)[nH]c2cc(OC)c(OC)cc12,inconclusive: 62%
14,O=C(COc1ccccc1Cl)Nc1ccc(C(=O)c2ccc(C(=O)O)cc2)cc1,inactive: 100%
15,Cc1nn(C)c(C(=O)NNC(=S)NC2CCCCC2)c1Cl,inconclusive: 98%
16,CCN(CC1COc2ccccc2O1)S(=O)(=O)c1ccc(C)cc1 (stereo not drawn),inactive: 98%
17,O=S(=O)(NCc1ccccn1)c1ccccc1,inconclusive: 103%
18,O=C(NNC(=O)C1CCN(S(=O)(=O)c2ccc(Cl)cc2)CC1)c1ccc(Cl)cc1,inconclusive: 104%
19,Cc1cc(-c2ccc3ccccc3c2)n2ncnc2n1,inactive: 94%
20,CCOc1ccccc1-n1nnnc1SCC(=O)Nc1cc(C)on1,inconclusive: 105%
21,CN1/C(=C/C(=S)NC(=O)C2(C)CC2(Cl)Cl)C(C)(C)c2ccccc21 (stereo not drawn),inconclusive: 101%

row,SMILES,GTP binding activity
1,Cc1nn(-c2ccccc2)c(Cl)c1C(=O)Nc1c(C)n(C)n(-c2ccccc2)c1=O,inconclusive: 93%
2,O=C1c2ccccc2-c2nc3ccccc3nc21,inconclusive: 90%
3,Cc1ccc(-n2c(SCC(=O)N3CCCc4ccccc43)nnc2-c2cccnc2)c(C)c1,inconclusive: 115%
4,Cc1cc(C)c2c(N)c3cccc(C)c3nc2n1,inconclusive: 97%
5,COc1ccc(CCNC(=S)NCc2ccc(Cl)c(Cl)c2)cc1OC,inconclusive: 92%
6,CC(C)NC(=O)Cn1cc(C(=O)COc2ccccc2)c2ccccc21,inactive: 97%
7,Fc1ccc(/C=C\c2nccc3c2[nH]c2ccccc23)cc1,inconclusive: 93%
8,O=C1CCCC(O)=C1C=NCc1ccccc1,inactive: 98%
9,CN(/N=C/c1ccncc1)C1=NS(=O)(=O)c2ccccc21,inconclusive: 60%
10,COC(=O)c1ccccc1NC(=O)c1cc2ncc(Br)cn2n1,inconclusive: 92%
11,CCOC(=O)CN=C(NS(=O)(=O)c1ccc(Cl)cc1)c1ccccc1,inactive: 96%
12,Cc1ccc(NC(=O)CNS(=O)(=O)c2cccs2)cc1F,inconclusive: 100%
13,CSc1ccc(Cl)c(C(=O)OCC(=O)Nc2ccccc2OC(F)F)c1,inactive: 100%
14,Cc1ccccc1Nc1nn2c(=O)c3ccccc3nc2s1,inconclusive: 82%
15,O=C(Nc1cccnc1)c1ccc2nc(-c3ccccc3)c(-c3ccccc3)nc2c1,inconclusive: 94%
16,O=C(Cc1ncc(C(F)(F)F)cc1Cl)NCc1ccco1,inconclusive: 92%
17,CC(OC(=O)c1ccc2c(=O)n3c(nc2c1)CCCCC3)C(=O)Nc1ccc(Cl)cn1 (stereo not drawn),inconclusive: 105%
18,CCOC(=O)c1c(-c2ccc(C)o2)csc1NC(=O)CSc1nncs1,inconclusive: 107%
19,CC(C)c1ccc(OCC(O)CN2CCN(c3ccccc3)CC2)cc1 (stereo not drawn),inconclusive: 107%
20,CC(c1ccccc1F)n1cc(C(=O)NCCc2ccco2)nn1 (stereo not drawn),inactive: 100%
21,CC(=O)C(Sc1nccc(-c2cccs2)n1)C(C)=O,inconclusive: 94%

row,SMILES,GTP binding activity
1,O=S(=O)(Nc1nnc(-c2ccccc2)s1)c1ccc(Cl)cc1,inconclusive: 90%
2,CC(NS(=O)(=O)c1ccccc1)C(=O)NCCc1ccccn1 (stereo not drawn),inconclusive: 96%
3,COC(=O)c1ccc(CN2C(=O)NC3(CCC(C)CC3)C2=O)cc1 (stereo not drawn),inactive: 96%
4,C=C(C)COc1ccc(-c2nc(N)nc(C)c2-c2ccc(OC)cc2)c(O)c1,inconclusive: 85%
5,Cn1c(=O)[nH]c(=O)c2c1nc(N1CCCCCC1)n2CCCSc1nnnn1-c1ccccc1,inactive: 98%
6,CC(C)(C)NC(=O)NC(=O)CSc1cccc(C(F)(F)F)c1,inconclusive: 96%
7,CN1CCN(C(=O)N2c3ccccc3CCc3ccccc32)CC1,inactive: 102%
8,COc1ccccc1CNC(=S)NC1CCCC1,inactive: 98%
9,CCCCC(CC(O)COCCC)C(=O)NN (stereo not drawn),inconclusive: 95%
10,O=c1c2[nH]c3ccccc3c2ncn1CCCn1ccnc1,inconclusive: 97%
11,CNCc1ccccc1Sc1cc(O)ccc1O,inconclusive: 99%
12,CC1CC(C)(C)NC(=S)N1CCCC(=O)Nc1ccc(F)cc1 (stereo not drawn),inactive: 97%
13,CCOC(=O)c1cc2c(=O)[nH]c(C(Cl)(Cl)Cl)nc2o1,inactive: 100%
14,c1ccc(-c2cc(-c3nn4c(-c5ccco5)nnc4s3)c3ccccc3n2)cc1,inconclusive: 84%
15,CN(C)/C=C/C1=CC(=O)CC(C)(C)C1,inconclusive: 93%
16,COC(=O)c1ccccc1NC(=O)c1ccc(COc2cc(C)cc(C)c2)o1,inconclusive: 101%
17,O=C(NCc1ccc(C(=O)O)cc1)OCc1ccccc1,inactive: 93%
18,O=C(CN1CC(=O)Oc2ccccc21)OCC(=O)c1cccc(Br)c1,inconclusive: 102%
19,O=C(O)C1Nc2c(O)cc(Cl)c([N+](=O)[O-])c2C2C=CCC12 (stereo not drawn),inconclusive: 84%
20,CC(C)(C)C(=O)c1sc2nc(-c3cccs3)cc(C(F)(F)F)c2c1N,inconclusive: 128%
21,COc1ccc(-c2noc(CCC(=O)NCC3CCN(Cc4cccc(C)c4)CC3)n2)cc1,inconclusive: 103%
